Source: the supplement of paper PMC6089552
In all, about 3,200 compounds went through this assay and about 300 (9.4%) showed activity. The entries are a selection whose mix differs from that of the whole data set.

Test system: A673/TR/shEF
Assay: cell viability (LOESS-normalised, relative to median of negative controls) (log2 ratio); higher = more viable cells (less compound effect), active = hit call of the paper (over 3 MAD below the median)
Conditions: treatment time: 72 h
Summary of the method: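 Viability of A673/TR/shEF Ewing sarcoma cells was determined by CellTiter-Glo luminescence. The cells, at 1,500 per well in 384-well plates, were grown with or without doxycycline from 24 h before compound addition to switch on EWS-FLI1 shRNA knockdown, then exposed for three days to library compounds at two or more concentrations or to DMSO controls. Signals were LOESS-corrected plate by plate, normalised to the negative-control median and log2-transformed.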

[1] = 0.25 µM, library screen: screen1, EWS-FLI1 expression: high (no doxycycline)
[2] = 0.25 µM, library screen: screen1, EWS-FLI1 expression: low (doxycycline-induced shRNA knockdown)
[3] = 2.5 µM, library screen: screen1, EWS-FLI1 expression: high (no doxycycline)
[4] = 2.5 µM, library screen: screen1, EWS-FLI1 expression: low (doxycycline-induced shRNA knockdown)
[5] = 0.25 µM, library screen: screen2, EWS-FLI1 expression: high (no doxycycline)
[6] = 0.25 µM, library screen: screen2, EWS-FLI1 expression: low (doxycycline-induced shRNA knockdown)
[7] = 2.5 µM, library screen: screen2, EWS-FLI1 expression: high (no doxycycline)
[8] = 2.5 µM, library screen: screen2, EWS-FLI1 expression: low (doxycycline-induced shRNA knockdown)
[9] = 0.103 µM, library screen: screen3, EWS-FLI1 expression: high (no doxycycline)
[10] = 0.103 µM, library screen: screen3, EWS-FLI1 expression: low (doxycycline-induced shRNA knockdown)
[11] = 0.308 µM, library screen: screen3, EWS-FLI1 expression: high (no doxycycline)
[12] = 0.308 µM, library screen: screen3, EWS-FLI1 expression: low (doxycycline-induced shRNA knockdown)
[13] = 0.926 µM, library screen: screen3, EWS-FLI1 expression: high (no doxycycline)
[14] = 0.926 µM, library screen: screen3, EWS-FLI1 expression: low (doxycycline-induced shRNA knockdown)
[15] = 2.8 µM, library screen: screen3, EWS-FLI1 expression: high (no doxycycline)
[16] = 2.8 µM, library screen: screen3, EWS-FLI1 expression: low (doxycycline-induced shRNA knockdown)
[17] = 8.3 µM, library screen: screen3, EWS-FLI1 expression: high (no doxycycline)
[18] = 8.3 µM, library screen: screen3, EWS-FLI1 expression: low (doxycycline-induced shRNA knockdown)
[19] = 25 µM, library screen: screen3, EWS-FLI1 expression: high (no doxycycline)
[20] = 25 µM, library screen: screen3, EWS-FLI1 expression: low (doxycycline-induced shRNA knockdown)

Measured: cell viability (log2)

CC(C)CC1NC(=O)CNC1=O (configuration not stated)
inactive: [1] 0.138 | [2] 0.0779 | [3] 0.0859 | [4] 0.0262

COc1cc(O)c(C)c(O)c1
inactive: [1] 0.0455 | [2] 0.156 | [3] 0.0996 | [4] 0.176

NOCC(=O)O
inactive: [5] 0.106 | [6] 0.089 | [7] 0.0342 | [8] 0.101

C[C@H](CCC(=O)O)[C@H]1CC[C@H]2[C@@H]3CC[C@@H]4CCCC[C@]4(C)[C@H]3CC[C@]12C
inactive: [1] 0.0641 | [2] -0.0159 | [3] 0.109 | [4] -0.0358

COc1ccc(CN2CCN(Cc3ccccc3C(F)(F)F)CC2)c(OC)c1OC
inactive: [1] -0.00682 | [2] 0.0327 | [3] 0.087 | [4] 0.144

CCOC(=O)[C@H](CCc1ccccc1)N[C@@H](C)C(=O)N1CCC[C@H]1C(=O)O
inactive: [9] 0.0659 | [10] -0.00414 | [1] 0.12 | [2] 0.0778 | [11] 0.171 | [12] 0.0558 | [13] 0.232 | [14] 0.121 | [3] 0.152 | [4] 0.123 | [15] 0.127 | [16] 0.0972 | [17] 0.181 | [18] 0.0837 | [19] 0.159 | [20] 0.0989

Cn1nnnc1SCC1=C(C(=O)O)N2C(=O)[C@@H](NC(=O)[C@H](OC=O)c3ccccc3)[C@H]2SC1
inactive: [1] 0.149 | [2] 0.168 | [3] 0.117 | [4] 0.0898

CN(C)CCCO[C@@H]1[C@H]2OC(C)(C)O[C@H]2O[C@@H]1[C@H](O)CO
inactive: [1] 0.116 | [2] 0.193 | [5] 0.148 | [6] 0.0809 | [3] 0.166 | [4] 0.236 | [7] 0.0824 | [8] 0.185

C[C@]12CC[C@@H]3c4ccc(O)cc4CC[C@H]3[C@@H]1C[C@@H](O)[C@@H]2O
inactive: [1] 0.127 | [2] -0.0345 | [3] 0.182 | [4] 0.105

Cc1nc(N)sc1-c1ccnc(Nc2ccc(N3CCOCC3)cc2)n1
active: [15] -0.219 | [17] -0.377 | [19] -0.478 | [20] -0.719

CCOc1ccc(C(=O)c2ccc(O)c(O)c2O)cc1
inactive: [1] 0.12 | [2] 0.127 | [3] 0.232 | [4] 0.262

CCc1cccc2c3c([nH]c12)C(CC)(CC(=O)O)OCC3 (configuration not stated)
inactive: [9] 0.0182 | [10] 0.14 | [1] 0.148 | [2] -0.0011 | [5] 0.149 | [6] 0.0812 | [11] 0.108 | [12] 0.0435 | [13] 0.0757 | [14] 0.0917 | [3] 0.117 | [4] 0.106 | [7] 0.0915 | [8] 0.0886 | [15] 0.147 | [16] 0.084 | [17] 0.0644 | [18] 0.0759 | [19] 0.0939 | [20] 0.131

Cc1noc(NS(=O)(=O)c2ccc(N)cc2)c1C
inactive: [9] 0.104 | [10] -0.00328 | [1] 0.0717 | [2] 0.133 | [11] 0.102 | [12] 0.0583 | [13] 0.114 | [14] 0.0666 | [3] 0.158 | [4] 0.22 | [15] 0.115 | [16] 0.0541 | [17] 0.0836 | [18] 0.0532 | [19] 0.11 | [20] 0.129

CO[C@H]1C=C[C@@]23c4cc5c(cc4CN(C[C@@H]2O)[C@H]3C1)OCO5
inactive: [1] 0.0568 | [2] 0.0269
active: [3] -0.415 | [4] -0.623

C=CC(=O)N1CCC[C@@H](n2nc(-c3ccc(Oc4ccccc4)cc3)c3c(N)ncnc32)C1
inactive: [9] -0.0901 | [10] 0.0229 | [11] -0.0466 | [12] 0.0297 | [13] 0.021 | [14] 0.0235 | [15] -0.0315 | [16] 0.0823 | [17] -0.0558 | [18] 0.16 | [19] -0.158 | [20] 0.0664

CC1=C(CC(=O)O)c2cc(F)ccc2/C1=C\c1ccc([S+](C)[O-])cc1 (configuration not stated)
inactive: [9] 0.117 | [10] -0.015 | [1] 0.167 | [2] 0.1 | [5] 0.24 | [6] 0.124 | [11] 0.087 | [12] 0.0827 | [13] 0.19 | [14] 0.0733 | [3] 0.242 | [4] 0.194 | [7] 0.129 | [8] 0.114 | [15] 0.19 | [16] 0.0382 | [17] 0.0514 | [18] 0.0676 | [19] 0.151 | [20] 0.0677
